The values that follow come from PubChem BioAssay AID1240 (Sanford-Burnham Center for Chemical Genomics, 2008).

Structures are written as SMILES. Out of some 50,000 compounds screened, about 800 (1.6%) showed an effect of 50% or more. The list shows a part of the results.

The test addresses Bcl-2-like protein 10 (Homo sapiens) (UniProt Q9HD36). The experiment in a line: TR3 peptide-Bcl-B binding displacers, biochemical primary FP assay, phenotype converters (AID 1240).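 Note: 0% = Bcl-B with tracer peptide and DMSO and 100% = tracer peptide lacking Bcl-B.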 To be noted: GST-Bcl-B / FITC-TR3 peptide fluorescence polarization; stronger effect = higher value; compound at 3.75 mg/L.
Chain of UniProt Q9HD36 (Q9HD36 whole entry, looked up): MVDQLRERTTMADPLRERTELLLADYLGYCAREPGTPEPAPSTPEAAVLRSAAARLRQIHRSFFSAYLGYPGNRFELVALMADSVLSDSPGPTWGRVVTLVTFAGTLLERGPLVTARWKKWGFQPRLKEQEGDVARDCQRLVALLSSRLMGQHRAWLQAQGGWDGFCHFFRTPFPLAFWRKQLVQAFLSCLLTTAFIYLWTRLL
On to `O=C(NN1C(=O)c2ccc(C(=O)c3ccc4c(c3)C(=O)N(NC(=O)c3ccncc3)C4=O)cc2C1=O)c1ccncc1`, for which the displacement came to 0.2%. As to `O=C(CC1S/C(=N\N=C\c2ccco2)NC1=O)Nc1cccc(Cl)c1Cl` (stereo not given), the displacement is 11%. Turning to `COc1c(Cl)cc(C(=O)Nc2cccc(C)c2)cc1Cl`, the displacement was found to be 3.1%. The value for `O=C(CCNc1ccc(Br)cc1)c1cccc([N+](=O)[O-])c1` was -10.4%; that for `COc1cccc(NC2=NS(=O)(=O)c3cc([N+](=O)[O-])ccc32)c1` was 7.4%; that for `O=C(Nc1cccc(O)c1)c1ccc2c(c1)C(=O)N(c1ccccn1)C2=O` was 4.3%.

`O=C(O)/C=C/c1ccc(S(=O)(=O)Nc2ccccn2)cc1`: the displacement is -5.9%. For `CN1C(=O)C(=Cc2cccc(Cl)c2Cl)C(=O)N(C)C1=O`, the displacement was 14.5%. `COc1ccccc1/C=N/NC(=O)COc1c(Br)cc(Br)cc1Br`: the displacement amounted to 14.7%. For `COc1ccc(C(=O)NCCN2CCN(C(=O)c3ccc(OC)cc3)CC2)cc1` the value was 3.2%. Turning to `COc1cccc2c(Cl)cc(C)nc12`, the displacement turned out to be 10.6%. The value for `Cc1cc(C)cc(-n2c(O)c(/C=C3\C=Nc4ccccc43)c(=O)[nH]c2=O)c1` was 71.2%; that for `COC(=O)C1=C(C)NC(=O)CC1c1cc(Br)ccc1F` (stereo not given) was -6.5%. As for `O=C(NCc1cccs1)c1cc2n(n1)C(C(F)(F)F)CC(c1cccs1)N2` (stereo not given), the displacement amounted to 0%. For `CCOP(=O)(CN(C)S(=O)(=O)c1ccc(Br)cc1)OCC` the value was 16.7%; for `O=C(CN(Cc1ccccc1)S(=O)(=O)c1ccccc1)NC1CCCCC1`, 10.6%; for `Cc1ccc(C(O)(C(=O)NCCO)c2ccc(C)cc2)cc1`, -2.2%. Turning to `Cc1cc(Oc2ccc(F)cc2)c(F)cc1[N+](=O)[O-]`, the displacement was -1.8%. On to `CCOC(=O)C1=C(C)NC2=C(C(=O)c3ccccc32)C1c1ccc2c(c1)OCO2` (stereo not given), for which the displacement amounted to 5%. Take `Cc1ccccc1OCC(=O)Nc1cccc(-c2nc3ccccc3[nH]2)c1`: the displacement amounted to 24.9%. Consider `COc1ccc(/C=C2\SC(=S)N(NC(=O)c3ccccc3Br)C2=O)cc1OC`, for which the displacement amounted to 9.1%.

As for `Cc1cccc(C2C3(OC(c4ccc(Br)cc4)C24C(=O)c2ccccc2C4=O)C(=O)c2ccccc2C3=O)c1` (stereo not given), the displacement came out at 7.3%. The value for `COc1cc(C=C2C(=O)NC(=S)NC2=O)ccc1OCc1ccc(C(=O)O)cc1` was 5.5%. The value for `Fc1ccc(-c2nnc(-c3ccco3)o2)cc1` was 14%.

Regarding `CCOc1ccc(N(CC(=O)Nc2ccccc2OCC)S(C)(=O)=O)cc1`, the displacement was -2.2%. Consider `O=C(/C=C/c1ccc([N+](=O)[O-])cc1)Nc1ccccc1Cl`, for which the displacement was 1.7%. With `CCOC(=O)C1=C(c2ccccc2)N=C2SCC(=O)N2C1c1ccccc1OC` (stereo not given), the displacement is -1.7%.

Consider `CCN(C(=O)c1ccccc1[N+](=O)[O-])c1ccccc1`, for which the displacement is -4.8%. On to `CCOc1cccc(C2C(C(=O)OC)=C(C)NC3=C2C(=O)CC(C)(C)C3)c1` (stereo not given), for which the displacement was -6%. `O=C(c1cccnc1)N1CCN(CCN2C(=O)C3C4C=CC(C4)C3C2=O)CC1` (stereo not given): the displacement was -0.2%. For `COc1cccc(OCCNC(=O)c2cc(OC)c(OC)c(OC)c2)c1` the value was 11.6%; for `O=c1[nH]c(=S)[nH]c2c1C1(CCCC1)Cc1ccccc1-2`, -4.2%. Regarding `CCOC(=O)c1ccc(Nc2c(N)c(=O)oc3ccccc23)cc1`, the displacement was -8%. `O=C1C2CCCCC2C(=O)N1c1nc2ccccc2s1` (stereo not given): the displacement was determined as 9.8%. As for `Cc1ccc(C(=O)N/C(=C\c2sccc2C)C(=O)NCCCN2CCOCC2)cc1`, the displacement is 3.4%. For the compound `O=C1Nc2ccccc2C1(O)C/C(=N/O)c1ccc(Cl)cc1` (stereo not given), the displacement came to 10.3%. For `COc1cccc(C(=O)Nc2ccc3c(c2)OCCO3)c1` the value was 3.8%; for `COc1ccc(-c2noc(/C=C/c3ccccc3)n2)cc1`, 19.1%. `COc1ccc(C(=O)N2CCN(C(=O)c3ccccc3F)CC2)cc1`: the displacement worked out at 5.9%.

On to `O=C(CCNS(=O)(=O)c1ccccc1[N+](=O)[O-])Nc1ccc(I)cc1`, for which the displacement came out at 11.7%. For the compound `COc1ccc(CC(Cc2nc3ccccc3[nH]2)c2nc3ccccc3[nH]2)cc1` (stereo not given), the displacement was -0.7%. For the compound `CCOc1ccc(NC(=O)CCC(=O)NCCO)cc1`, the displacement was -1.9%.

In the case of `Cc1nc2c(C)c(-c3ccccc3)[nH]n2c(=O)c1C`, the displacement came to 5.5%. Turning to `COC(=O)C1=CNC=C(C(=O)OC)C1c1cccc(OC)c1OC`, the displacement was -0.6%. For `Cc1ccc(C)c(Nc2nc(-c3ccncc3)nc3ccccc23)c1` the value was -6.2%. As to `COc1ccc2ccccc2c1C1NC(=S)NC(C)=C1C(=O)Nc1ccccc1C` (stereo not given), the displacement was -3.2%. For `Cc1ccc(NC(=O)C2C3CC/C=C\CC/C=C/CCC32)cc1C` (stereo not given), the displacement is -4.4%. Turning to `CCCCOc1ccc(/C=C2\SC(=S)N(CCC(=O)OC)C2=O)cc1OC`, the displacement turned out to be 54.1%. On to `CC1(C)Cc2ccccc2-c2nnc(-c3ccccc3Cl)n21`, for which the displacement was determined as 2.9%. For `Cc1oc2ccc(OS(C)(=O)=O)cc2c1C(=O)OC(C)C`, the displacement was 9.4%.

`Cc1cccc(N/C=C/C(=O)c2ccc(Br)cc2)n1`: the displacement was -10.3%. Turning to `COc1cc(/C=C2/SC(=S)NC2=O)ccc1OS(=O)(=O)c1ccccc1[N+](=O)[O-]`, the displacement was -4.7%.

For `Cc1ccccc1P(=O)(CO)c1ccccc1C`, the displacement was -15.8%. The value for `COc1cc(/C=N\N2CCN(Cc3ccc(C)cc3)CC2)cc(Br)c1O` was 14.6%; that for `Cc1ccc(NC(=O)c2c(-c3ccccc3)noc2C)cc1C` was -5.8%. For the compound `CN(C(=O)Cc1ccccc1)c1ccccc1`, the displacement came out at 13.5%. Consider `COc1ccc(C)cc1NC(=O)C(=O)NCC(C)C`, for which the displacement is -2.2%.

As to `O=C(NCc1ccccc1)c1nn2c(C(F)(F)F)cc(-c3cccs3)nc2c1Cl`, the displacement stood at 15.4%. On to `Oc1c(Br)cc2oc3c(c2c1/C=N/c1ncn[nH]1)CCCC3`, for which the displacement is 8.5%. Regarding `CCn1c2ccccc2c2cc(CN3CCN(Cc4ccc(OC)c(Br)c4)CC3)ccc21`, the displacement is -12.3%.

For the compound `COc1ccc(CCN2C(=O)C(C)C(Cc3ccc(C)cc3)C2=O)cc1OC` (stereo not given), the displacement was determined as 14.1%. For `CC(=O)CSc1sc(=S)sc1SCC(C)=O` the value was -17%.

As to `O=S(=O)(Nc1ccccn1)c1ccc(-c2ccccc2)cc1`, the displacement was -5.1%. Consider `Cc1ccc(C(=O)NC(Nc2ccc(F)cc2)C(Cl)(Cl)Cl)cc1` (stereo not given), for which the displacement is -5.1%.

`CCc1cc(C)nc2cc(-c3ccccc3)nn12`: the displacement is -8.1%. For `CC1(C)CC(=O)C2=C(C1)NC1=C(C(=O)CC(C)(C)C1)C2c1ccccc1Cl` the value was 1.8%; for `CC(=NCCN1CCNCC1)C1=C(O)CC(C)(C)CC1=O`, -4.3%.

On to `CC1=NN(c2cccc(C(=O)O)c2)C(=O)/C1=C\c1ccc2c(c1)OCO2`, for which the displacement came out at 0.3%. In the case of `CCOC(=O)C1=C(C)N=c2s/c(=C\c3ccccn3)c(=O)n2C1c1ccc(OC)c(OC)c1` (stereo not given), the displacement is 42.1%. `Cc1cc(/C=C2\C(=O)NC(=O)N(c3cccc(F)c3)C2=O)c(C)n1-c1cccnc1`: the displacement came to 24.3%.
